Results reported in article PMC12136788.
The list shows a part of the results.

T1: UNK ZnF1-6 (called full-length) (human, UniProt Q9C0B0 30-357)
T1 sequence: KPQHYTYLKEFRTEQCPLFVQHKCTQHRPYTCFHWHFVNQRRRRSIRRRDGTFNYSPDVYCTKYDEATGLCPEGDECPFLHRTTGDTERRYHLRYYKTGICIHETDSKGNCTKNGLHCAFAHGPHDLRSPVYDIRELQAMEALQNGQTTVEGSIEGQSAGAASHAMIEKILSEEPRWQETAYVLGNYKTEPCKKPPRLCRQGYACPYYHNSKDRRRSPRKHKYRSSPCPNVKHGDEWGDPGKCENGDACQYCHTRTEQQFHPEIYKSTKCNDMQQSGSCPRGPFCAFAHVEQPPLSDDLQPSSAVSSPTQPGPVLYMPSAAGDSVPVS

B1: chr15:42943230:42943331:-|3pUTR|ENSG00000159459|msi1|FALSE|unique (ssRNA)
RNA: GGGAGUUCUACAGUCCGACGAUCAUUAUGCUUAUGAAGUUUACUUACAAACAAGCAACUGAGUCACUUUAUUUUCUUUAGUGUAGUAUGUGAAGGCACUGGUUCAACAGGAUGGCUCCAGAACUGUGUUUUUCUAAUGUUUGGCAACAGAGGAUUGAGCAUCA
B2: chr10:17237356:17237519:+|3pUTR|ENSG00000026025|msi1_unk|total|mutant (ssRNA)
RNA: GGGAGUUCUACAGUCCGACGAUCAGACCGAUUUGGAACCGGAAUAAGCUCCCGUUCUUAACAACCGACACUCCUACAAGAUUCCGAAAAAAGUUUACAACAUAAUCCCGUUUACAGAAAAAUCUUGUGCCCGAAUACUUUUUACAACAGAGGAUUGAGCAUCA
B3: ENSG00000165672:stop:overlap|stop_codon|ENSG00000165672|stop_codon|NA|stop_codon (ssRNA)
RNA: GGGAGUUCUACAGUCCGACGAUCCUCCUACGAUCAAGCCAAGUCCAGCUGCUUCCAAAGAGUACUUUCAGAAGGUAAAUCAGUAGAUCACCCAUGUGUAUCUGCACCUUCUCAACUGAGAGAAGAACCACAGUUGAAACCUGCCAACAGAGGAUUGAGCAUCA
B4: chr5:113567122:113567223:+|CDS|ENSG00000047188|unk|FALSE|bound_elsewhere (ssRNA)
RNA: GGGAGUUCUACAGUCCGACGAUCAAACUCUGAGAAUUGGGCUGUCGUUAAAGCUGCAUUGGUGGCAGGCAUGUAUCCUAAUUUAGUCCACGUGGACAGAGAGAAUCUAGUGUUGACAGGGCCAAAGGAGAAAAAAGUACGAUUCAACAGAGGAUUGAGCAUCA
B5: chr3:185917260:185917361:-|3pUTR|ENSG00000136527|msi1|FALSE|unique (ssRNA)
RNA: GGGAGUUCUACAGUCCGACGAUCUGGCAAAAAGCAACAAUAAACAGUUUGAUUUUUACUUUUCUUUCUAACAUAUCAAUGCUUAGCAGAACUAUUCAGAUUGUCAGUAGUAAAUUUAAAGACAAAUGCCCGUUUUCCUCCAGUCAACAGAGGAUUGAGCAUCA
B6: chr16:88813726:88813828:-|3pUTR|ENSG00000141012|unk|total|mutant (ssRNA)
RNA: GGGAGUUCUACAGUCCGACGAUCUCCCUGGACGCUAAUUAUGAGGGAGGCGUGCCGCUUCUUAUCAUUGUAACUAUGUUAUUCCGAAAUAAAACGGGAGGCAGGUUUGCCUAAUUCCCAGCUUGAUUUUUCUCUUGGCUGAGUCAACAGAGGAUUGAGCAUCA
B7: ENSG00000151012:stop:overlap|stop_codon|ENSG00000151012|stop_codon|NA|stop_codon (ssRNA)
RNA: GGGAGUUCUACAGUCCGACGAUCCUGAAGAAGUAGAAAACCCUGAAAAACCUUUUCUGAGCGGCUACUGGGAAAUUUCUCAUUAGCAGUUCCGAUCUUUGUUGCCCUCUCCUGCUUUGGCUCCAUGAACGGUGGUGUGUUUGCCAACAGAGGAUUGAGCAUCA
B8: chr3:43366700:43366801:-|3pUTR|ENSG00000160746|unk|FALSE|unique (ssRNA)
RNA: GGGAGUUCUACAGUCCGACGAUCACGGUGGCAGGGGGGGUACCCGGGGCAGCAUCGUGGCUCCUGAACCCAGACCCAAUGCUUAGCCAAACGAAGUGGCUCCCAUGUGGCAAGCACCCUUCUCAGUUUCGCAGUGGCUUGGCUCAACAGAGGAUUGAGCAUCA
B9: chr14:44924370:44924471:-|3pUTR|ENSG00000179454|unk|total|mutant (ssRNA)
RNA: GGGAGUUCUACAGUCCGACGAUCACCUUUUCCGCAUCAGGGUUUUAUUUUAUUUAUGUUUACACACUAAAGUGUCAUUUAACCCGUUAAGAAUUGUAUUCUUUUUUAUUUUAAAGGUUAUUUGUGUGUAUCAUUGUGGUAAUGCAACAGAGGAUUGAGCAUCA
B10: chr17:4671690:4673145:-|CDS|ENSG00000141456|control|control|control (ssRNA)
RNA: GGGAGUUCUACAGUCCGACGAUCGGAGGAAGAAGAACUGGAAGAGGUGGAAGACCUGGAGUUUGGCACAGCAGGAGGGGAGGUAGAAGAAGGUGCACCUCCACCCCCAACCCUGCCUCCAGCUCUGCCUCCCCCUGAGUCUCCCAACAGAGGAUUGAGCAUCA
B11: chr3:186556460:186556561:-|CDS|ENSG00000113838|unk|FALSE|unique (ssRNA)
RNA: GGGAGUUCUACAGUCCGACGAUCAGAGCCAGGAAGAUCUAUCCACUUCAUGAACUUGCACUGUGGCAACCACUGCAUGCAGAUAGUGGCUUCUCAAAGAUCUCUAAGACUUUCUCUUUCUACAAACUGGAAACCUGGUUGAGGCAACAGAGGAUUGAGCAUCA
B12: ENSG00000198589:be:win_8351|CDS|ENSG00000198589|bound_else_gene|NA|bound_elsewhere_windowed (ssRNA)
RNA: GGGAGUUCUACAGUCCGACGAUCUCACAGGAGGAGACAGAGGAGUGGUCGUGGUCCGGCAGGUGUCGGACCUCAAGCAGCUCUUUGCCUAUCCAGGAUGUGACGCUGGAAUCCGGGCCAUGGCGCUGUCUUACGACCAGAGGUCAACAGAGGAUUGAGCAUCA
B13: chr15:22826343:22826444:+|3pUTR|ENSG00000170113|msi1|FALSE|unique (ssRNA)
RNA: GGGAGUUCUACAGUCCGACGAUCAAAGUCCAUUACUCUUUUUAUUGGCUCUUGCAGGUUUUGUGUUUUAUCAUCAGUGCUUUUAGAAAUGCAGGCCUUAACUUACUGAACUGAACUUUCUGAAAACGUAAUGUAGCAGUAUCACAACAGAGGAUUGAGCAUCA
B14: ENSG00000107863:be:win_4501|CDS|ENSG00000107863|bound_else_gene|NA|bound_elsewhere_windowed (ssRNA)
RNA: GGGAGUUCUACAGUCCGACGAUCGAAGAACCCUCACCACCACACAACUCAAAACACAACAAGUCACCAACUCUCAGCUGUCGCUUUGCCAUCCUGAAAGAGAGCCCCAGGUCACUUCUGGCACAGAAGUCCUCCCACCUUGAACAACAGAGGAUUGAGCAUCA

The binders below were run against T1, UNK ZnF1-6 (called full-length) (assay: nsRBNS (natural sequence RNA bind-n-seq); RBNS binding buffer (assumed for nsRBNS): 25 mM Tris pH 7.5, 150 mM KCl, 3 mM MgCl2, 0.01% Triton X-100, 500 ug/ml BSA, 20 U/ml SUPERase-In, 4 C; UNK is unkempt and MSI1 is Musashi-1; names of the RNAs are library labels; protein concentration not given here; high values mean tight binding).

Binder | binding signal [enrichment R]
B1 | 0.808
B2 | 0.21
B3 | 0.751
B4 | 0.812
B5 | 0.751
B6 | 0.451
B7 | 0.811
B8 | 1.11
B9 | 0.866
B10 | 0.794
B11 | 0.437
B12 | 0.939
B13 | 0.51
B14 | 0.977
